Measured values taken from publication PMC4336329 (PLoS ONE, 2015).
In all, about 310,000 compounds went through this assay and about 2,200 (0.71%) showed an effect of 50% or more. Effects have a minus sign here. Some of the results follow.

Biological target: human ether-à-go-go-related gene (hERG) potassium channel (human, UniProt Q12809)
Assay: primary screen, population patch clamp on CHO cells stably expressing hERG

human ether-à-go-go-related gene (hERG) potassium channel, sequence (Q12809 whole entry, looked up): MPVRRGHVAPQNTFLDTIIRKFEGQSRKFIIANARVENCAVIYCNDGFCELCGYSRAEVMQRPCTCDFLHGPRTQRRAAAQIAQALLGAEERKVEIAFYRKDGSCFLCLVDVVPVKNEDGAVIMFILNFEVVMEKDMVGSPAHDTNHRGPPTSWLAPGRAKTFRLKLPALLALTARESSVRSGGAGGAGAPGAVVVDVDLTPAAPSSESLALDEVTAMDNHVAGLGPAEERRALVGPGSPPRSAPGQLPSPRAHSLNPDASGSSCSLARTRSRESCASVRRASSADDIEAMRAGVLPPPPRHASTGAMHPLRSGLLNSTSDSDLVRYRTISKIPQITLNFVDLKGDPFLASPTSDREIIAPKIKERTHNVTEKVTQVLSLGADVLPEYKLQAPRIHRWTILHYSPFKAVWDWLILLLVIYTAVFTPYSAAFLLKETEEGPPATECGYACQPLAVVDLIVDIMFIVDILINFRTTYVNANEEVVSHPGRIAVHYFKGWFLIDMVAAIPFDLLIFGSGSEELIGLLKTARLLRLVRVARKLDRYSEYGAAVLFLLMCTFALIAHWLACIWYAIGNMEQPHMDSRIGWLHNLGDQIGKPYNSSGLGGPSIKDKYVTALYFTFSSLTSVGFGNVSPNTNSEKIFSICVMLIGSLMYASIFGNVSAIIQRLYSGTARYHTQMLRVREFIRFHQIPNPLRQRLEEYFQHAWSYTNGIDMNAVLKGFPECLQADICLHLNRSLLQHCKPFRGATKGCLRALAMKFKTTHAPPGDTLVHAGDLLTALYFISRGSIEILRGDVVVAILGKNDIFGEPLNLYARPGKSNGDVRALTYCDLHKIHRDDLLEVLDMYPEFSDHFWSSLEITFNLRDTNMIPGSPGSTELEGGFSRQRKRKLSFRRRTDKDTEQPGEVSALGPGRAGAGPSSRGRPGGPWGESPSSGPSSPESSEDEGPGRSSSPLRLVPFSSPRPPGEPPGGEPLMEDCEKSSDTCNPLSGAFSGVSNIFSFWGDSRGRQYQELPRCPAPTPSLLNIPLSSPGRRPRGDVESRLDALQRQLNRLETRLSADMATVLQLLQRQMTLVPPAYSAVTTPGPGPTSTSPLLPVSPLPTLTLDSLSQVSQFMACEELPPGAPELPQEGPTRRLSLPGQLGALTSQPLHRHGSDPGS

Row | Structure (SMILES) | hERG current change (%, negative = inhibition) at 1uM [%]
1 | COc1ccc(CN(C)CC(O)COC(c2ccccc2)c2ccccc2)c(OC)c1OC (centres unmarked) | -43.6
2 | CC1(C)C=Cc2c(ccc(-c3coc4cc(O)ccc4c3=O)c2O)O1 | 3.22
3 | CN1CCN(CC(=O)N2c3ccccc3Sc3ccccc32)CC1 | 5.24
4 | CCN=C1S/C(=C\c2cc(Br)c(O)c(OC)c2)C(=O)N1CC | 9.92
5 | COc1ccc(CC(=O)NCC(=O)NCc2cc(=O)n(C)c(=O)n2C)cc1 | 12.9
6 | COC(=O)c1c(C)oc2ccc(N(C(=O)c3ccncc3)S(=O)(=O)c3ccccc3)cc12 | -1.4
7 | CC(=O)NC1(C(F)(F)F)C(=O)Nc2c1c(=O)n(C)c(=O)n2C (centres unmarked) | 12.1
8 | C=CCNC(=O)C(=O)c1c(-c2ccccc2)[nH]c2ccccc12 | 14.3
9 | CN(CC(=O)Nc1ccc(F)c(F)c1F)C(=O)c1cc(-c2ccncc2)nc2ccccc12 | 0.428
10 | CC(=O)NCCNC(=O)c1ccc(Sc2ccccc2)c([N+](=O)[O-])c1 | -15.6
11 | CC(Cc1ccccc1)(NC(=O)CN)c1ccccc1.Cl (centres unmarked) | 13.4
12 | COc1ccc(CN(C)Cc2nc(Cc3cccc(F)c3)no2)c2cccnc12 | 9.83
13 | c1ccc(-c2csc3ncnc(N4CCc5ccccc5C4)c23)cc1 | 4.63
14 | O=C(CSc1nccc(=O)[nH]1)Nc1ccc(Oc2ccccc2)cc1 | 10.4
15 | CCc1ccc(-c2csc3nc[nH]c(=O)c23)cc1 | 6.72
16 | COc1cccc(Nc2nc(N)nc(C(F)(F)F)n2)c1 | 13.7
17 | COCCN1C(=O)N[C@@H](CCc2ccccc2)C(C(C)=O)=C1C | 5.21
18 | COc1cccc(/C=N/NC(=O)CNC(=O)COc2ccccc2)c1O | 6.16
19 | COc1cc(/C=C2\SC(N)=NC2=O)cc(Cl)c1O | 15.9
20 | CCC(=O)NC(=S)Nc1ccc(N2CCOCC2)cc1 | 4.88
21 | CN(C1CCCCC1)S(=O)(=O)c1ccc(NC(=O)c2ccc(Br)o2)cc1 | 6.33
22 | N#C/C(=C\c1ccc(F)cc1F)S(=O)(=O)c1ccccn1 | 8.65
23 | O=C(Nc1ccc(Nc2ccccc2)cc1)c1ccc(Cl)cc1[N+](=O)[O-] | 9.44

Row | Structure (SMILES) | hERG current change (%, negative = inhibition) at 1uM [%]
24 | N#Cc1cccc(C#N)c1Oc1ccc(S(=O)(=O)Nc2ccccc2)cc1 | 16
25 | Cc1cc(=O)oc(C)c1C(=O)NCCN1CCOCC1 | 7
26 | CCOc1cc(CNCc2cccnc2)cc(Br)c1OCC(N)=O.Cl | 8.87
27 | COc1ccc(Cl)cc1-c1nc(SCC(=O)NC2CC2)n[nH]1 | -0.229
28 | CCN(CC)CC(=O)c1c[nH]c2ccc(OC)cc12 | 3.98
29 | Cc1onc(-c2c(Cl)cccc2Cl)c1C(=O)Nc1ccc2c(c1)OCO2 | 0.619
30 | CCOc1cc(CO)cc(Br)c1OCC(N)=O | 16.2
31 | COc1ccccc1C(=O)Nc1ccc(S(=O)(=O)NC2=NCCCCC2)cc1 | 1.87
32 | O=C(CSc1nnc(-c2ccccc2)c(-c2ccccc2)n1)Nc1ncc(Cl)cc1Cl | 4.86
33 | CC(C)CN(CCNC(=O)CN1C(=O)CSc2ccc(S(=O)(=O)N3CCOCC3)cc21)CC(C)C | 3.98
34 | CC(OC(=O)c1cc(=O)[nH]c2ccccc12)C(=O)Nc1ccccc1F (centres unmarked) | 7.73
35 | COc1cccc(-n2c(CNc3ccc(F)cc3)nnc2SCC(N)=O)c1 | 4.77
36 | CCc1c(C#N)c(SCCC(=O)Nc2ccc(C)cc2)nc2c1C(=O)CC(C)(C)C2 | 12.4
37 | COc1ccc(NC(=S)N(CCCN2CCCC(C)C2)Cc2cccs2)cc1 (centres unmarked) | -62.4
38 | CCC1CCc2c(sc(NC(=O)C3c4ccccc4Oc4ccccc43)c2C(N)=O)C1 (centres unmarked) | 0.625
39 | O=C(Nc1ccccc1Cl)C1CCN(S(=O)(=O)c2cccc3nonc23)CC1 | 13.9
40 | COc1ccc(Cl)cc1NC(=O)CN(C)C(=O)c1cccc(-n2cnnn2)c1 | 3.14
41 | CCCC[C@@H]1CCCO[C@@](C(=O)NCc2ccc(C)o2)(C(F)(F)F)C1 | 7.81
42 | COc1ccccc1CNc1ncnc2cc(OC)c(OC)cc12 | -2.09
43 | CCOc1ccccc1C(=O)Nc1ccc2nc3n(c(=O)c2c1)CCCCC3 | 9.28
44 | Cc1ccc(NNS(=O)(=O)c2ccc(C)cc2)cc1 | -6.46
45 | O=C(NCc1ccc(F)cc1)c1cc2c(cc1Cl)N1CCCCCC1=NS2(=O)=O | 6.81
46 | CC/C(O)=C1\C(=O)CC(c2ccccc2)CC1=NC(C)C (centres unmarked) | 9.11

Row | Structure (SMILES) | hERG current change (%, negative = inhibition) at 1uM [%]
47 | COc1ccc(NC(=O)Nc2nnc(CC(=O)NCc3ccccc3)s2)cc1 | 8.48
48 | CCOc1ccc(C2c3c(oc4cc(C)c(C)cc4c3=O)C(=O)N2CCCN2CCOCC2)cc1 (centres unmarked) | -1.14
49 | CCC1(CC)Cc2ccccc2-c2nc(NCCCO)[nH]c(=O)c21 | 11.8
50 | COc1ccc(Br)cc1CN1CCN(S(=O)(=O)Cc2ccccc2)CC1 | 7.09
51 | Cc1[nH]n(-c2ccc([N+](=O)[O-])cc2)c(=O)c1C=NCCN1CCN(C(=O)C(C)C)CC1 | -19.5
52 | Cc1ccccc1NC(=O)CCC(=O)N/N=C/c1ccncc1 | 21.4
53 | C=CCNc1ncnc2c1cnn2-c1ccc(Cl)cc1 | 3.5
54 | Cc1onc(-c2ccccc2)c1C(=O)N/N=C/c1cccs1 | 14.2
55 | CCc1cc(C(=O)NNC(=S)Nc2cc(C)ccc2C)cs1 | -2.24
56 | CCCC1=[N+](CC)CCn2c(C)ccc21.[Br-] | 12.8
57 | Cc1cnc(C(=O)OC(C)C(=O)Nc2ccc3c(c2)OCCO3)cn1 (centres unmarked) | 13.7
58 | Cc1cc2c(Nc3ccc(C(=O)O)cc3)ncnc2s1.Cl | 23.6
59 | CCCCN(Cc1cc2ccccc2[nH]c1=O)C(=O)c1ccccn1 | 17.2
60 | Cc1c(CC(=O)N2CCN(C(=O)C3COc4ccccc4O3)CC2)c(=O)oc2c(O)c(O)ccc12 (centres unmarked) | 9.48
61 | CC(=O)Oc1ccc(C(=O)[C@H]2[C@H]3C(=O)N(c4ccc(C)cc4)C(=O)[C@H]3[C@@H]3C=CC=NN32)cc1 | 13.8
62 | COc1ccc(C(=O)NCC(=O)NCCc2c[nH]c3ccccc23)cc1OC | -5.32
63 | CC(C)Cn1c(SCC(=O)N2CC(=O)Nc3ccccc32)nc2ccccc21 | 6.57
64 | CN1C2CCC1/C(=C/c1ccccn1)C(=O)/C2=C\c1ccccn1 | 2.53
65 | Cc1ccc(OCCNC(=O)c2ccc3c(c2)OCO3)cc1 | 11.2
66 | COc1ccc(S(=O)(=O)N2CC3CC(C2)c2cccc(=O)n2C3)cc1 (centres unmarked) | 9.01
67 | Cc1ccc(C)c(NC(=S)NCc2ccc3[nH]c4c(c3c2)CCCC4)c1 | 11.4
68 | CCOC(=O)C1C(=O)CC(C)(O)C(C(=O)OCC)C1c1cc(Br)ccc1OC (centres unmarked) | 10.7
69 | O=C(NC(Cc1c[nH]c2ccccc12)C(=O)O)c1cccs1 (centres unmarked) | 12.1

Row | Structure (SMILES) | hERG current change (%, negative = inhibition) at 1uM [%]
70 | O=C(NCCOc1ccccc1)C(=O)c1c[nH]c2ccccc12 | 3.44
71 | Cc1cc(=O)oc2c(C)c3occc3cc12 | 16.3
72 | Cc1noc(C)c1C(=O)N(CC(=O)Nc1ccccc1Br)Cc1ccco1 | 2.06
73 | Cn1nnnc1SCC(=O)NC(=O)NCc1ccccc1 | 11.8
74 | CC(=O)OC(C(=O)NC1CCCCC1)c1ccc(C)cc1 (centres unmarked) | 10.9
75 | CCN(CC)c1ccc(NC(=O)Nc2cccc(C(C)=O)c2)cc1 | 13.2
76 | O=C1CC[C@@H](O)CCN1CC[C@H](Sc1ccc(Br)cc1)c1ccccc1 | 3.73
77 | CN(C)C(=O)CN1C(=O)NC(c2ccccc2)(c2ccccc2)C1=O | 5.02
78 | CCC(=O)c1ccc(N2CCN(C(=O)c3ccccc3Br)CC2)c(F)c1 | -0.036
79 | CCC1CCCCN1CCNC(=O)C1CCN(S(=O)(=O)c2c(C)noc2C)CC1 (centres unmarked) | 8.34
80 | CC(C)c1ccc2c(c1)C(=O)NC(C)(C)C2 | 2.08
81 | O=C(O)C1(c2ccccc2)CCN(S(=O)(=O)c2cccc(Cl)c2)CC1 | 12.3
82 | O=C(CN1CCN(Cc2cccc(Cl)c2)C1=O)N1CCC2(CC1)OCCO2 | 12.7
83 | COc1ccc(C(=O)O/N=C(\N)Cc2ccc(Cl)cc2Cl)cc1OC | 12
84 | Cc1nc(NC(=O)CSc2nnc(C)n2CC2CCCO2)sc1C (centres unmarked) | -0.227
85 | Cc1oc2cc3oc(=O)c(CC(=O)O)c(C)c3cc2c1-c1ccccc1 | 15.3
86 | O=c1ncn(-c2ccccc2F)c2ncccc12 | -2.27
87 | COc1cccc(C2SCC(=O)N2c2cccc(C)c2)c1OC (centres unmarked) | 2.47
88 | CC1=C/C(=C/N(C)c2ccccc2)C(=O)S1 | -1.19
89 | Cn1ncc(N=Cc2ccccc2)c1C(=O)Nc1cccc(Cl)c1 | 12.6
